Experimental data published in PubChem BioAssay AID624296 (National Center for Advancing Translational Sciences (NCATS), 2012).
Hit rate of the full screen: of about 350,000 compounds, about 9,900 (2.8%) were called active. This list was built around the results that the source calls inconclusive (neither active nor inactive); the mix of calls is not that of the screen. Calls follow the shape of the dose curve; as a rule, active = well fitted activation curve with a large enough effect; inconclusive = small, poorly fitted or top-dose-only effect; inactive = no such curve, though single readings can be large or run the other way. Potencies of inconclusive entries are left out as doubtful fits.

Assay: A quantitative high throughput screen for small molecules that induce DNA re-replication in MCF 10a normal breast cells. Also: nearly all actives have a fitted effect of over 50% in size.
Details: MCF 10A DNA re-replication, Hoechst nuclear intensity, 48 h; series mostly up to 46.1 µM
Potency is read from the fitted curve at half-maximal effect; tags tell the direction and shape of the fitted curve.

| Compound | Potency |
| --- | --- |
| CCC1=NN2C(=N)/C(=C\c3cccn3-c3ccc(Cl)cc3)C(=O)N=C2S1 | inconclusive [activator, single point] |
| CC(O)CN=c1cc(-c2ccccc2)oc2ccc(Cl)cc12 (stereo unspecified) | inconclusive [activator, single point] |
| Cc1ccc(S(=O)(=O)N2[C@@H](c3ccccc3F)C(C(=O)O)=CC[C@H]2c2ccc(C(C)C)cc2)cc1 | inconclusive [activator, single point] |
| Cc1ccc(-c2csc3nc(CSc4nnc(-c5ccc(Cl)cc5)n4C)[nH]c(=O)c23)cc1 | inconclusive [activator, single point] |
| Cc1ccc(SCC(=O)c2c(C)nc3cc(C)ccn23)cc1 | inconclusive [activator, partial curve, poor fit] |
| C=C1CCC2[C@](C)(CO)[C@H](O)CC[C@@]2(C)[C@@H]1C/C=C1\C(=O)OC[C@H]1O (stereo partly specified) | inconclusive [activator, partial curve, poor fit] |
| CCc1noc(C)c1C(=O)N1CCN(S(=O)(=O)c2ccc(C)cc2C)CC1 | inactive |
| CN1CCCc2cc(C=O)ccc21 | inactive |
| CNc1cc(C)c(C#N)c2nc3ccccc3n12 | inactive |
| O=C(O)c1ccc(S(=O)(=O)c2ccc3c(c2)C(=O)N(c2ccccc2[N+](=O)[O-])C3=O)cc1 | inactive |
| COc1ccc(C(CCNCc2ccc(N(C)C)cc2)c2ccccc2OC)cc1 (stereo unspecified) | inconclusive [activator, single point] |
| CCn1cnc2c1c(=O)n(CC(=O)NCC(F)(F)F)c(=O)n2Cc1ccccc1 | inconclusive [activator, single point] |
| COc1ccc(C(=O)Nn2c(CC(C)C)nc3cc(Cl)ccc3c2=O)c(OC)c1 | inactive |
| CC(C)CCNC(=O)c1onc(CSc2ccccc2)c1C(=O)NCCC(C)C | inconclusive [activator, partial curve, poor fit] |
| COCc1c(C(=O)N2CCN(Cc3c(F)cccc3Cl)CC2)oc2ccccc12 | inconclusive [activator, single point] |
| Nn1c(Cc2ccc(Br)cc2)n[nH]c1=S | inactive |
| COc1ccc(CCNc2ncnc3sc(C)cc23)cc1OC | inconclusive [activator, single point] |
| COc1ccccc1-c1cc(C(=O)Nc2cccnc2)no1 | inconclusive [activator, partial curve, poor fit] |
| CCOC(=O)c1c(CN(C)C)n(-c2ccc(C)cc2)c2cc(Br)c(O)cc12 | inconclusive [activator, partial curve, poor fit] |
| CN(C1=C(NC(=O)c2ccccc2)C(=O)c2ccccc2C1=O)C1CCS(=O)(=O)C1 (stereo unspecified) | active: 23.1 µM |
| COc1ccc2c(C)c(Cc3ccccc3)c(=O)oc2c1OC | inactive |
| O=C(/C=C/c1cccc2ccccc12)c1ccncc1 | active: 11.6 µM |
| O=C1C(=C(I)I)c2ccccc2-c2ccccc21 | inconclusive [activator, partial curve, poor fit] |
| Cc1ccccc1OCC(=O)NNC(=O)Nc1ccc(Cl)cc1 | active: 3.66 µM |

| Compound | Potency |
| --- | --- |
| Cc1cc(C)cc(C(=O)NN2CCN(C)CC2)c1 | inconclusive [activator, partial curve, poor fit] |
| C[C@@H]1CN([C@H](C)CO)C(=O)c2cccc(NC(=O)Nc3ccc(C(F)(F)F)cc3)c2O[C@H]1CN(C)S(=O)(=O)c1cccs1 | inconclusive [activator, single point] |
| O=C(COn1nnc2ccc(Cl)cc21)NC12CC3CC(CC(C3)C1)C2 | inconclusive [activator, partial curve, poor fit] |
| COC(=O)Cc1c(CSc2ccccc2)oc2ccc(O)c(CN(C)C)c12 | inconclusive [activator, single point] |
| CCc1ccc(NC(=O)C2CCCN2c2nn3c(=O)cc(C)nc3s2)cc1 (stereo unspecified) | inactive |
| CCOC(=O)c1sc(NC(=O)CSc2nc(C)cc(C)n2)c(C#N)c1C | inconclusive [activator, single point] |
| Cn1c(SCCCC(=O)c2ccc(F)cc2)nnc1-c1ccncc1 | inconclusive [activator, partial curve, poor fit] |
| C[C@H](N)c1nnc(SCc2ccc(Cl)cc2Cl)o1 | inconclusive [activator, partial curve, poor fit] |
| O=C(COC(=O)c1n[nH]c2ccccc12)Nc1ccc(Cl)cc1[N+](=O)[O-] | inconclusive [activator, single point] |
| Fc1ccc(-n2cc(CNCCc3ccccn3)c(-c3ccccc3Cl)n2)cc1 | inconclusive [activator, single point] |
| Cc1ccc(S(=O)(=O)N2CCOc3ccccc32)c(C)c1NS(C)(=O)=O | inactive |
| CC(Sc1nncs1)C(=O)NC1CCCCC1C (stereo unspecified) | inactive |
| CC(C)Cn1c(O)c(N=NC(=O)c2cccc(S(=O)(=O)N3CCCCC3)c2)c2ccccc21 | inconclusive [activator, partial curve] |
| O=C(CSC1=NCCN1)Nc1ccccc1[N+](=O)[O-] | inconclusive [activator, single point] |
| COc1ccc(CNC(=O)c2cc(-c3ccccc3O)n[nH]2)cc1 | inactive |
| Cc1oncc1C(=S)Nc1ccccc1 | active: 8.2 µM |
| CN(c1ccc(OCC(=O)OCC(=O)NCc2ccco2)cc1)S(=O)(=O)c1ccc2ccccc2c1 | inactive |
| COc1ccc(N2CCN(C(=O)Cc3csc(NC(=O)Nc4ccccc4OC)n3)CC2)cc1 | inactive |
| Cc1nn(Cc2ccc(Cl)cc2)c(C)c1NC(=O)Cn1nc([N+](=O)[O-])c(Cl)c1C | inconclusive [activator, partial curve, poor fit] |
| O=C(Nc1cccc(C(F)(F)F)c1)c1cccnc1N1CCN(CCO)CC1 | inactive |
| O=C(CCSCc1ccccc1F)N1CCN(c2ccccn2)CC1 | inactive |
| CCOC(=O)C1(CCc2ccccc2)CCN(C(=O)C(C)n2cncn2)CC1 (stereo unspecified) | inactive |
| CCCN1CCC(NC(=O)Nc2ccc(Br)cc2)CC1 | inconclusive [activator, single point] |
| CCOC(=O)c1ccc(NC(=O)CC2OCCN(CC)C2=O)cc1 (stereo unspecified) | inconclusive [activator, partial curve, poor fit] |

| Compound | Potency |
| --- | --- |
| Cc1ccc(Cl)cc1N1CCN(C(=O)CSc2ccsc2[N+](=O)[O-])CC1 | inconclusive [activator, partial curve, poor fit] |
| COc1ccccc1C(=O)N/C(=C/c1ccco1)C(=O)Nc1cccc(C(=O)O)c1 | inactive |
| Cc1occc1C(=O)NCCCc1ccccc1 | inconclusive [activator, single point] |
| Cc1cc(C)c2cc(CN(Cc3ccc4c(c3)OCO4)Cc3nnnn3Cc3ccco3)c(=O)[nH]c2c1 | inconclusive [activator, single point] |
| CCOC(=O)COc1ccc2c3c(c(=O)oc2c1)CCCC3 | inactive |
| Cc1ccnc(Sc2ccc([N+](=O)[O-])cc2[N+](=O)[O-])n1 | inconclusive [activator, single point] |
| CCSc1cc(N2CCCC2)nc(-c2ccc(F)cc2)n1 | inactive |
| COc1ccc(-n2c(CCc3ccccc3)nnc2SCC(=O)NCc2ccccc2)cc1 | inactive |
| Cc1ccc2nc(SCC(=O)c3c(C)[nH]c4ccccc34)[nH]c2c1 | active: 13 µM |
| Cc1cccc2sc(NC(=O)CNS(=O)(=O)c3ccc(Br)s3)nc12 | inconclusive [activator, partial curve, poor fit] |
| CC1CC(O)CC(C)(C)C1 (stereo unspecified) | inactive |
| CC(=O)c1c(C)nn(CC(O)COc2ccc3ccccc3c2)c1C (stereo unspecified) | inactive |
| COc1ccc(Cl)cc1NC(=O)CSc1nc(N2CCCCC2)nc(N2CCCCC2)n1 | inactive |
| Cc1ccc(S(=O)(=O)c2nc(S(C)(=O)=O)sc2N2CCC(C)CC2)cc1 | inconclusive [activator, partial curve, poor fit] |
| Cc1cc(C)cc(NC(=O)c2oc3ccccc3c2COc2ccccc2)c1 | inconclusive [activator, single point] |
| O=C(C1CCN(S(=O)(=O)c2ccc(Cl)cc2)CC1)N1CCCC1 | inactive |
| COc1ccc(-c2nn(-c3ccccc3)cc2/C=C2/SC(=S)N(CCC(=O)O)C2=O)c(C)c1 | inconclusive [activator, partial curve, poor fit] |
| CC(=O)Nc1ccc(N=c2cc([N+](=O)[O-])cc(Cl)n2O)cc1 | inconclusive [activator, single point] |
| Cc1nc2ccccc2c2oc(C(=O)Nc3ccc(C(C)C)cc3)cc12 | inconclusive [activator, partial curve, poor fit] |
| N#CC1=C(S)N(c2ccccc2)C(c2ccc(-c3cccc(Cl)c3)o2)NC1=O (stereo unspecified) | inconclusive [activator, partial curve, poor fit] |
| COCCOC(=O)C1=C(C)NC(C)=C(C(=O)OC/C=C/c2ccccc2)C1c1cccc([N+](=O)[O-])c1 (stereo unspecified) | inactive |
| Cc1ccc(NN2C(=O)C=C(c3ccc(Cl)cc3)C2=O)cc1 | active: 14.6 µM |
| N=c1ccn(Cc2cccc(Cl)c2)cc1 | inconclusive [activator, partial curve, poor fit] |
